Further values from the same series stand in other lists.
Tests used:
[1] = Biodistribution of 99mTc complexes in mice; assay type: in vivo, Balb/c mice
Description: A series of derivatives incorporating carboxyl and phenolate donor groups (1-6) were synthesised by literature method and their radiolabelling characteristic and biological behaviour evaluated. Initial work involved an investigation of radiochemical properties of the ^99m Tc complexes of the ligands and their biodistribution in rats and mice (see Tables 1-6 and 8-12).
A typical method of radiolabelling of the chelator was achieved by dissolving the chelator in a basic solution of saline. The pH was then adjusted to approx. 6 with HCl. Excess stannous chloride was added to the resultant solution followed by one equivalent volume of sodium ^99m TcO4 (10-50 mCi/ml). Final concentration of the chelator was approx. 1 mg/ml. The efficacy of labelling was determined by ITLC-SG. For each product only one main radiochemical species was observed. Each complex was diluted to 15 μCi/100 μl with saline. […] (See FIGS. 1A and 1B).

[2] = Biodistribution of 67Ga complexes in mice; assay type: in vivo, balb/c mice
Outline: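 Ligand labelled with 67Ga citrate at pH 12, 40 °C for 40 min, diluted in saline and filter-sterilised. Balb/c mice given ~3.7×10^5 Bq intravenously via tail vein; five animals sacrificed at each of six time points.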

## Nc1ccc(O)c(NC(=O)CN(CCN(CC(=O)O)CC(=O)Nc2cc(N)ccc2O)CC(=O)O)c1 [Compound 5]
[1]; 1 min
  biodistribution GIT: 3.89 % Injected dose
  biodistribution bladder: 0.09 % Injected dose
  biodistribution blood: 26.59 % Injected dose
  biodistribution heart: 0.61 % Injected dose
  biodistribution lungs: 1.64 % Injected dose
  biodistribution stomach: 0.65 % Injected dose
  biodistribution tail: 2.65 % Injected dose
[1]; 3 min
  biodistribution GIT: 3.22 % Injected dose
  biodistribution bladder: 1.16 % Injected dose
  biodistribution blood: 14.84 % Injected dose
  biodistribution bone: 4 % Injected dose
  biodistribution heart: 0.43 % Injected dose
  biodistribution lungs: 1.65 % Injected dose
  biodistribution stomach: 0.56 % Injected dose
  biodistribution tail: 4.28 % Injected dose
[1]; 5 min
  biodistribution GIT: 2.42 % Injected dose
  biodistribution bladder: 2.15 % Injected dose
  biodistribution blood: 10.06 % Injected dose
  biodistribution bone: 2.79 % Injected dose
  biodistribution heart: 0.26 % Injected dose
  biodistribution lungs: 1.28 % Injected dose
  biodistribution stomach: 0.4 % Injected dose
  biodistribution tail: 11.55 % Injected dose
[1]; 10 min
  biodistribution GIT: 3.94 % Injected dose
  biodistribution bladder: 1.04 % Injected dose
  biodistribution blood: 12.87 % Injected dose
  biodistribution bone: 2.98 % Injected dose
  biodistribution heart: 0.23 % Injected dose
  biodistribution lungs: 1.1 % Injected dose
  biodistribution stomach: 0.63 % Injected dose
  biodistribution tail: 6.98 % Injected dose
[1]; 30 min
  biodistribution GIT: 4.61 % Injected dose
  biodistribution bladder: 0.83 % Injected dose
  biodistribution blood: 3.98 % Injected dose
  biodistribution bone: 1.86 % Injected dose
  biodistribution heart: 0.12 % Injected dose
  biodistribution lungs: 0.46 % Injected dose
  biodistribution stomach: 0.49 % Injected dose
  biodistribution tail: 2.01 % Injected dose
[2]; 1 min
  biodistribution bladder: 0.48 % ID
  biodistribution blood: 17.48 % ID
  biodistribution bone: 4.85 % ID
  biodistribution caecum: 0.36 % ID
  biodistribution colon: 0.59 % ID
  biodistribution duodenum: 0.12 % ID
  biodistribution heart: 0.35 % ID
  biodistribution ileum: 0.32 % ID
  biodistribution jejunum: 0.81 % ID
  biodistribution kidney: 8.39 % ID
  biodistribution liver: 3.08 % ID
  biodistribution lungs: 1.15 % ID
  biodistribution muscle: 23.50 % ID
  biodistribution pancreas: 0.36 % ID
  biodistribution salivary gl: 0.29 % ID
  biodistribution skin: 20.79 % ID
  biodistribution spleen: 0.18 % ID
  biodistribution stomach GL: 0.27 % ID
  biodistribution stomach SQ: 0.08 % ID
  biodistribution testes: 0.25 % ID
[2]; 3 min
  biodistribution bladder: 0.62 % ID
  biodistribution blood: 12.82 % ID
  biodistribution bone: 5.90 % ID
  biodistribution caecum: 0.26 % ID
  biodistribution colon: 0.53 % ID
  biodistribution duodenum: 0.10 % ID
  biodistribution heart: 0.27 % ID
  biodistribution ileum: 0.20 % ID
  biodistribution jejunum: 0.61 % ID
  biodistribution kidney: 5.78 % ID
  biodistribution liver: 3.02 % ID
  biodistribution lungs: 0.89 % ID
  biodistribution muscle: 19.47 % ID
  biodistribution pancreas: 0.19 % ID
  biodistribution salivary gl: 0.28 % ID
  biodistribution skin: 21.98 % ID
  biodistribution spleen: 0.15 % ID
  biodistribution stomach GL: 0.17 % ID
  biodistribution stomach SQ: 0.10 % ID
  biodistribution testes: 0.25 % ID
[2]; 5 min
  biodistribution bladder: 0.47 % ID
  biodistribution blood: 8.06 % ID
  biodistribution bone: 4.51 % ID
  biodistribution caecum: 0.31 % ID
  biodistribution colon: 0.37 % ID
  biodistribution duodenum: 0.05 % ID
  biodistribution heart: 0.19 % ID
  biodistribution ileum: 0.18 % ID
  biodistribution jejunum: 0.46 % ID
  biodistribution kidney: 3.17 % ID
  biodistribution liver: 2.04 % ID
  biodistribution lungs: 0.76 % ID
  biodistribution muscle: 20.11 % ID
  biodistribution pancreas: 0.16 % ID
  biodistribution salivary gl: 0.16 % ID
  biodistribution skin: 18.72 % ID
  biodistribution spleen: 0.10 % ID
  biodistribution stomach GL: 0.11 % ID
  biodistribution stomach SQ: 0.10 % ID
  biodistribution testes: 0.32 % ID
[2]; 10 min
  biodistribution bladder: 0.10 % ID
  biodistribution blood: 2.86 % ID
  biodistribution bone: 21.3 % ID
  biodistribution caecum: 0.09 % ID
  biodistribution colon: 0.11 % ID
  biodistribution duodenum: 0.03 % ID
  biodistribution heart: 0.07 % ID
  biodistribution ileum: 0.08 % ID
  biodistribution jejunum: 0.29 % ID
  biodistribution kidney: 2.39 % ID
  biodistribution liver: 1.22 % ID
  biodistribution lungs: 0.22 % ID
  biodistribution muscle: 4.58 % ID
  biodistribution pancreas: 0.05 % ID
  biodistribution salivary gl: 0.06 % ID
  biodistribution skin: 10.65 % ID
  biodistribution spleen: 0.05 % ID
  biodistribution stomach GL: 0.04 % ID
  biodistribution stomach SQ: 0.03 % ID
  biodistribution testes: 0.08 % ID
[2]; 30 min
  biodistribution bladder: 1.04 % ID
  biodistribution blood: 1.16 % ID
  biodistribution bone: 1.69 % ID
  biodistribution caecum: 0.04 % ID
  biodistribution colon: 0.05 % ID
  biodistribution duodenum: 0.02 % ID
  biodistribution heart: 0.04 % ID
  biodistribution ileum: 0.07 % ID
  biodistribution jejunum: 0.18 % ID
  biodistribution kidney: 1.72 % ID
  biodistribution liver: 1.33 % ID
  biodistribution lungs: 0.16 % ID
  biodistribution muscle: 2.65 % ID
  biodistribution pancreas: 0.05 % ID
  biodistribution salivary gl: 0.04 % ID
  biodistribution skin: 5.12 % ID
  biodistribution spleen: 0.03 % ID
  biodistribution stomach GL: 0.03 % ID
  biodistribution stomach SQ: 0.02 % ID
  biodistribution tail: 0.86 % ID
  biodistribution testes: 0.10 % ID
[2]; 120 min
  biodistribution bladder: 0.32 % ID
  biodistribution blood: 0.65 % ID
  biodistribution bone: 0.80 % ID
  biodistribution caecum: 0.03 % ID
  biodistribution colon: 0.05 % ID
  biodistribution duodenum: 0.01 % ID
  biodistribution heart: 0.03 % ID
  biodistribution ileum: 0.06 % ID
  biodistribution jejunum: 0.09 % ID
  biodistribution kidney: 1.60 % ID
  biodistribution liver: 0.86 % ID
  biodistribution lungs: 0.10 % ID
  biodistribution muscle: 1.44 % ID
  biodistribution pancreas: 0.01 % ID
  biodistribution salivary gl: 0.03 % ID
  biodistribution skin: 2.82 % ID
  biodistribution spleen: 0.02 % ID
  biodistribution stomach GL: 0.02 % ID
  biodistribution stomach SQ: 0.01 % ID
  biodistribution tail: 0.64 % ID
  biodistribution testes: 0.05 % ID
